Results on 89 compounds are retold here after article PMC4336329 (PLoS ONE, 2015).

The campaign covered roughly 310,000 compounds. About 2,200 (0.71%) showed an effect of 50% or more. The effect is printed as a negative number. The list shows a part of the results.

The target in this test is human ether-à-go-go-related gene (hERG) potassium channel (human, UniProt Q12809). As to the kind of experiment: primary screen, population patch clamp on CHO cells stably expressing hERG.
Chain of human ether-à-go-go-related gene (hERG) potassium channel (Q12809 whole entry, looked up): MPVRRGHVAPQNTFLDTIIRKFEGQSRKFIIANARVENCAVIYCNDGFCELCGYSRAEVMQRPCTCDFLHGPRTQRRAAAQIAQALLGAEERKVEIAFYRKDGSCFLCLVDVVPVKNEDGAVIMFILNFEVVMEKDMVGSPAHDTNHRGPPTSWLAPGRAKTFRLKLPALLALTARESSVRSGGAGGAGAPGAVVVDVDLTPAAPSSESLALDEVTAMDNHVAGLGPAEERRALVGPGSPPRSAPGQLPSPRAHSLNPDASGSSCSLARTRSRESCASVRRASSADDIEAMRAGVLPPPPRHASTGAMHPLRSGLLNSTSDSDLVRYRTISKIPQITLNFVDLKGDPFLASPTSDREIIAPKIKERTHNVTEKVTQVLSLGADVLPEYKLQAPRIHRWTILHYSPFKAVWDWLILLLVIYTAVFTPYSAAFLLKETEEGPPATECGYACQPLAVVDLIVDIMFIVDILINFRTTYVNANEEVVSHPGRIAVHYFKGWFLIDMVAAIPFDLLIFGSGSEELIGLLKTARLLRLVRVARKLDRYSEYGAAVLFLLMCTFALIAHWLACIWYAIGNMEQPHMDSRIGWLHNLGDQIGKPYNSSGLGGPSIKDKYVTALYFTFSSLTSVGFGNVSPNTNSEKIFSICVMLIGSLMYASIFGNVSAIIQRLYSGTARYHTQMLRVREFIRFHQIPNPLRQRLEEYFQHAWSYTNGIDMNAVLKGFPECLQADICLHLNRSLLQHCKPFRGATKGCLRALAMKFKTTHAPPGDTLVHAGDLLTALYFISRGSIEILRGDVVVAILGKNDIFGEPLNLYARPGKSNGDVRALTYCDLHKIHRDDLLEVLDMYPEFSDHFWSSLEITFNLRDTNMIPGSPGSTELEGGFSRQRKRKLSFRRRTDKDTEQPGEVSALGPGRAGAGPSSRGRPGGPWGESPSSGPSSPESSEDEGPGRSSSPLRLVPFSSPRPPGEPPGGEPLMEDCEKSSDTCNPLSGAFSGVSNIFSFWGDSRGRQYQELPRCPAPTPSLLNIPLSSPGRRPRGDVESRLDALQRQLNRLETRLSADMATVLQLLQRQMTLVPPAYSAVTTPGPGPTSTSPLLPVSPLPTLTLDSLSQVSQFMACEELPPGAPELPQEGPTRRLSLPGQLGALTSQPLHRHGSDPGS
For the compound `CN1CCN(CCCNC(=O)c2nnc(Cc3c(F)cccc3Cl)o2)CC1`, the “hERG current change (%, negative = inhibition) at 1uM” value is given as 1.2%.
Regarding `Cc1cc(=S)[nH]c2c(C)cccc12`, the “hERG current change (%, negative = inhibition) at 1uM” value came out at 15.9%.
As for `CCN(CC)S(=O)(=O)N1CCC(C(=O)NCc2ccc3c(c2)OCO3)CC1`, the figure is 1.07%.
Take `Cc1ccc(S(=O)(=O)c2c(C)cc(C)nc2N2CCOCC2)cc1`: the “hERG current change (%, negative = inhibition) at 1uM” value came to 15.2%.
As for `O=C(CCCNC(=O)c1ccc(Cl)cc1)Nc1cccc(F)c1`, the figure is 14.1%; as for `O=C(NCCc1cccnc1)C1CCC(=O)N(CCc2cccc(F)c2)C1` (centres unmarked), 2.95%.
Next, `CCCN(CC(=O)Nc1ccc(Cl)cc1Cl)C(=O)/C=C/c1ccco1`: 8.31%; `Cc1ccc(-n2c(C)nnc2SCC(=O)NC2CC2)cc1`: 8.23%.
Next, `CC(C)(C)C(=O)/C=C(\N)c1ccccn1`: -1.33%; `[Cl-].c1ccc(-c2c[nH]c3[n+]2CCCCC3)cc1`: 2.88%; `O=C(Nc1ccc(Cl)c(S(=O)(=O)N2CCOCC2)c1)c1cc(=O)[nH]c2ccccc12`: 3.57%.
On to `CCc1cc2ccc(OC)cc2nc1SCC(=O)N1CCN(C(=O)c2ccco2)CC1`, for which the “hERG current change (%, negative = inhibition) at 1uM” value is listed as 0.367%.
Next, `Cc1ccc(NC(=O)CCN2C(=O)c3cccc4cccc(c34)C2=O)cc1`: 10.1%.
As for `CCN(CC)C(=O)Cn1cc(C(=O)C(=O)N2CCN(c3ccc([N+](=O)[O-])cc3)CC2)c2ccccc21`, the figure is -6.24%; as for `Cc1ccc(C(=O)Nc2nnc(S(=O)(=O)Nc3ccccc3C)s2)cc1C`, 14.5%; as for `CCn1nccc1C(=O)Nc1cc(Cl)cc(Cl)c1`, -2.09%.
Next, `NC(=O)C[n+]1cccc(C(N)=O)c1.[Cl-]`: 12.2%.
In the case of `O=C(Nc1ccccc1)/C(=C/c1ccccc1)c1ccccc1`, the “hERG current change (%, negative = inhibition) at 1uM” value is listed as 1.32%.
As for `CC(=O)c1cc2c(cc1NC(=O)CN1CCCCCC1)OCO2.O=C(O)C(=O)O`, the figure is 7.79%; as for `COc1ccc(CCNCc2cccn2C)cc1OC.Cl`, 11.2%; as for `O=C(CC12CC3CC(CC(C3)C1)C2)NCc1ccc(F)cc1`, 13.7%.
Next, `CN(Cc1cccs1)C(=O)CSc1nc(N)cc(N)n1`: 18.6%; `COCCn1c(-c2ccc(OC)c(OC)c2)nc2ccccc21`: 1.57%; `O=C(NCc1ccc(Cl)cc1)N1CCN(S(=O)(=O)c2ccccc2)CC1`: 6.78%.
As for `CN(C)CCN(Cc1ccco1)C(=O)c1cc2c(Cl)nc3ccccc3c2s1`, the figure is -13.7%; as for `O=C(CN1C(=O)c2ccccc2S1(=O)=O)c1ccccc1F`, 4.57%; as for `O=C(CN1CCC(n2nnc3cc(F)ccc32)CC1)NCCc1ccccc1`, -6.52%.
Regarding `O=C1CN(C(=O)c2ccccc2Cl)c2ccccc2N1`, the “hERG current change (%, negative = inhibition) at 1uM” value was 12.3%.
Next, `O=C(CNc1cccc(Cl)c1)NNC(=S)NCc1ccccc1`: 14.1%; `CCN1CCN(S(=O)(=O)c2ccc(Cl)c(C(=O)N(C)C(c3ccccc3)c3ccccc3)c2)CC1`: 12.6%; `Br.FC(F)(F)c1ccc(N2CCOCC2)c(NC2=NCCCCC2)c1`: 18.8%.
As for `CC1=C(C)/C(=N\OC(=O)/C=C/c2ccccc2)C=CC1=O`, the figure is 14.2%; as for `O=C(CCC(=O)CCN1CCCCC1)CCN1CCCCC1`, 4.17%.
In the case of `O=C(NNC(=O)c1ccccc1[N+](=O)[O-])c1ccc(NC(=O)c2ccccc2)cc1`, the “hERG current change (%, negative = inhibition) at 1uM” value is recorded as 3.1%.
For the compound `Cc1cccc(OCCOC(=O)C2CCN(S(=O)(=O)c3ccc(C)c(C)c3)CC2)c1`, the “hERG current change (%, negative = inhibition) at 1uM” value stood at 8.14%.
In the case of `O=C(NC(=S)N1CCCCCC1)c1ccc(Cl)cc1Cl`, the “hERG current change (%, negative = inhibition) at 1uM” value came out at 11.6%.
Consider `C[C@H]1CCCC(=O)CCCCCc2cc(O)cc(O)c2C(=O)O1`, for which the “hERG current change (%, negative = inhibition) at 1uM” value is 6.66%.
With `S=C1NCCOCCNC(=S)NCCOCCOCCOCCN1`, the “hERG current change (%, negative = inhibition) at 1uM” value turned out to be 10.9%.
Next, `Cc1ccccc1NC(=O)c1c([N+](=O)[O-])cnn1C`: 15.7%; `N#CCCN(CCC#N)C(=O)c1ccc(Cl)cc1`: 9.68%; `O=C(Nc1nc2c(s1)COc1ccccc1-2)c1cccs1`: 8.46%.
Regarding `COC(=O)c1sccc1NC(=O)CC1C(=O)NCCN1C(=O)c1c(F)cccc1Cl` (centres unmarked), the “hERG current change (%, negative = inhibition) at 1uM” value is recorded as 9.53%.
Next, `O=C(COC(=O)c1nsc(Cl)c1Cl)NC1CCCC1`: 11.2%.
Next, `Cc1csc(SCC(=O)Nc2ccc(C)c(F)c2)n1`: 0.854%.
Next, `COCCN(C(=O)c1csnn1)C(C(=O)NC1CCCCC1)c1sccc1C` (centres unmarked): -0.647%.
Turning to `c1ccc(-c2nc(N3CCNCC3)nc3ccccc23)cc1`, the “hERG current change (%, negative = inhibition) at 1uM” value is listed as -8.36%.
Consider `O=C(CSc1nc2ccccc2s1)NCc1cc([N+](=O)[O-])ccc1O`, for which the “hERG current change (%, negative = inhibition) at 1uM” value worked out at 10.4%.
For `CC1CCCCC1NC(=O)Cn1cccc1C(=O)c1ccccc1` (centres unmarked), the “hERG current change (%, negative = inhibition) at 1uM” value is recorded as 14%.
Next, `CCc1nnc2n1N=C(c1ccc(Cl)cc1)CS2`: 9.26%.
Next, `COc1ccc(C2CC(C(F)(F)F)n3ncc(C(=O)Nc4cccc(O)c4)c3N2)cc1OC` (centres unmarked): 7.53%; `CCN(CC)S(=O)(=O)c1cccc(NC(=O)CNC2CCCCCC2)c1.O=C(O)C(=O)O`: -0.491%; `Cc1cc(C)cc(N(CC(=O)NC2CCCC2)C(=O)CCC(=O)Nc2nccs2)c1`: 15.5%.
Next, `COc1ccc(-c2nn(C)c(=O)c3ccccc23)cc1NC(=O)Cn1nc(-c2ccccc2)c2ccccc2c1=O`: 7.65%.
`Cc1ccc(C(=O)N/C(=C/c2ccco2)C(=O)O)cc1`: the “hERG current change (%, negative = inhibition) at 1uM” value was 7.27%.
On to `CCOP(=O)(OCC)C1NC(=O)N(c2ccccc2)C1=O` (centres unmarked), for which the “hERG current change (%, negative = inhibition) at 1uM” value is 12.6%.
As for `O=C(O)/C=C/C(=O)Nc1ccc(OC(F)(F)F)cc1Br`, the figure is 12.4%; as for `COc1ccc(C2C(C#N)=C(N)Nc3onc(C(C)(C)C)c32)c(OC)c1` (centres unmarked), 2.98%; as for `CCCC1(C(=O)OC)NC(c2cc(OC)c(OC)c(OC)c2)C2C(=O)N(CC)C(=O)C21` (centres unmarked), 8.7%.
As for `CC(C)(C)C(=O)Nc1scc(-c2ccc(-c3ccccc3)cc2)c1C(=O)O`, the figure is 21.8%; as for `C=CCSc1nnc(NC(=O)C23CC4CC(CC(NC(C)=O)(C4)C2)C3)s1`, 12.8%; as for `CC(=O)c1ccc2noc(-c3cccc(F)c3)c2c1`, 12.2%.
Turning to `COc1ccc(-n2ncc3c(Nc4cccc(C)c4)ncnc32)cc1`, the “hERG current change (%, negative = inhibition) at 1uM” value amounted to 3.99%.
For the compound `O=C(CCn1nnc2ccccc21)Nc1nnc(COc2ccccc2F)s1`, the “hERG current change (%, negative = inhibition) at 1uM” value is given as 12.7%.
Next, `COc1ccc(N/C(=N\c2nc(C)cc(C)n2)NC(C)=O)cc1OC`: 16.7%.
As for `CC1CN(C(=O)c2cc3cc(Cl)ccc3[nH]2)CC(C)O1` (centres unmarked), the figure is 9.39%; as for `CCNC(=O)CSc1nnc(-c2ccccc2Br)n1-c1cccc(C(F)(F)F)c1`, 2.88%.
As for `O=S(=O)(NC1CCCC1)c1ccc(S(=O)(=O)N(Cc2cccs2)CC2CCCO2)cc1` (centres unmarked), the figure is 14.2%; as for `CSc1nsc(SC)c1C(=O)Nc1ccc(Cl)cc1`, 14.7%; as for `C#CCOCCOCCOCCNc1nc(N2CCN(C(=O)[C@H](CCCCN)n3cc(C(N)[C@H](C)CC)nn3)CC2)nc(N2CCN(C(=O)[C@H](CCC(=O)O)n3cc(C(N)[C@H](C)CC)nn3)CC2)n1.Cl` (some centres unmarked), 7.77%.
Consider `O=C(CCc1nc2sc3c(c2c(=O)[nH]1)CCCC3)Nc1cccc(Cl)c1`, for which the “hERG current change (%, negative = inhibition) at 1uM” value came to 3.08%.
As for `Cc1ccc(-n2c(Cc3cccn3C)nnc2SCC(N)=O)cc1`, the figure is -3.2%.
Next, `Cc1ccc(NCC(=O)N/N=C/c2cc(O)ccc2[N+](=O)[O-])cc1`: 14%.
As for `COc1ccc2[nH]c3c(c2c1)CCNC3c1ccc([N+](=O)[O-])o1.Cl` (centres unmarked), the figure is 4.08%; as for `COC(=O)c1ccc(NC(=O)CN2C(=O)CNC2=O)cc1`, 14.9%; as for `CCCOC(=S)NC(=O)c1sc2ccccc2c1Cl`, 1.39%.
Turning to `CCCCOc1ccc2c(C)cc(=O)oc2c1OCCCC`, the “hERG current change (%, negative = inhibition) at 1uM” value is reported as 8.25%.
As to `CCN=C1SC(C(=O)Nc2ccc(OCC)cc2)CC(=O)N1CC` (centres unmarked), the “hERG current change (%, negative = inhibition) at 1uM” value is listed as 11.7%.
Next, `CCOc1c(CNCCCSc2nc(C)cc(C)n2)cccc1OC.Cl`: 10.3%; `C=CCn1c(O)c(C(C)=NC(C)c2ccccc2)c(=O)[nH]c1=O` (centres unmarked): 10.4%.
Next, `Cc1ccc([N+](=O)[O-])c(C(=O)Nc2cccnc2Cl)c1`: 4.94%; `CCC(=O)Nc1ccc(NC(=O)c2ccc3c(c2)OCO3)cc1`: 3.87%; `COc1ccc(CCNC(=O)c2ccc(COc3ccccc3OC)o2)cc1`: 4.54%.
As for `Cc1cc(=O)n(-c2ccccc2Cl)[nH]1`, the figure is 10.4%.
For `COc1ccccc1-c1noc(CCCC(=O)NC2CCCC2)n1`, the “hERG current change (%, negative = inhibition) at 1uM” value was 15.1%.
Regarding `Cc1cc(C)nc(Sc2nc(Nc3ccccc3)nc(Sc3nc(C)cc(C)n3)n2)n1`, the “hERG current change (%, negative = inhibition) at 1uM” value is reported as 4.2%.
Take `COc1cc(OC)c(NC2=NCCCCC2)cc1Cl`: the “hERG current change (%, negative = inhibition) at 1uM” value was 9.81%.
Next, `Cc1ccccc1C(=O)NC(=S)Nc1ccc(S(=O)(=O)N2CCN(C)CC2)cc1`: 4.91%; `CCc1cc2c(SCC(=O)c3ccc(Cl)s3)ncnc2s1`: 5.79%; `Cc1ccc(C)c(NC(=O)COc2coc(CN3CCc4ccccc4C3)cc2=O)c1`: -5.2%.
